Measurements: PMC9262583
Results are given in words; binding and its absence hold for the method and conditions named. Binding seen in cells or lysates may run through a third protein. Some binding calls cover weakened binding; strength is not graded here. Tags and fused reporters may be left off the sequences shown.

Amino acid sequences for entries named in this document (tags omitted).
UniProt Q9NFU0: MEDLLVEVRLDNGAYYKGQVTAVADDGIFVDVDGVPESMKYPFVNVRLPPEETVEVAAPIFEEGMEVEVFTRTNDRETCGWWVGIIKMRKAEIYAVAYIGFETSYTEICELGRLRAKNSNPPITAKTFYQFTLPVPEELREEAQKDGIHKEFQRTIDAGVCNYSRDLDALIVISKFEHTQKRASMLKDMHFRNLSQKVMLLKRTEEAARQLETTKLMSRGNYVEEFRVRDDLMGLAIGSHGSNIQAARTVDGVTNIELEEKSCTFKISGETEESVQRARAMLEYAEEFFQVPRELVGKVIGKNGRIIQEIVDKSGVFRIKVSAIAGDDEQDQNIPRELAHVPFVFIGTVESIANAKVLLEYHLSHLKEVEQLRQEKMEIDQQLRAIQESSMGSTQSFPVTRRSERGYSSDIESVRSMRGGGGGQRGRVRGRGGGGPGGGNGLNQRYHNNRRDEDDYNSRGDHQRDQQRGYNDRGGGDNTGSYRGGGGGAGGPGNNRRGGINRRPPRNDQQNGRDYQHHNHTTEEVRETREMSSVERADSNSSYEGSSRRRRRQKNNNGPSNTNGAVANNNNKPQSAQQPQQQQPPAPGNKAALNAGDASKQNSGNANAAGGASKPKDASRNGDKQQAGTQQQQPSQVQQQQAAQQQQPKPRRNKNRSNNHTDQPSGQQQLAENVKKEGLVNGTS

How the values were obtained:
Test in all cases: co-IP; anti-GFP immunoprecipitation from late-ovary extract in the presence of RNase; immunoblot with anti-dFMRP, anti-Glo or anti-GFP
[1] = molecular target: T1, GFP-GloΔCTX1 + 2 (Drosophila) (UniProt Q9VGH5)
T1 sequence: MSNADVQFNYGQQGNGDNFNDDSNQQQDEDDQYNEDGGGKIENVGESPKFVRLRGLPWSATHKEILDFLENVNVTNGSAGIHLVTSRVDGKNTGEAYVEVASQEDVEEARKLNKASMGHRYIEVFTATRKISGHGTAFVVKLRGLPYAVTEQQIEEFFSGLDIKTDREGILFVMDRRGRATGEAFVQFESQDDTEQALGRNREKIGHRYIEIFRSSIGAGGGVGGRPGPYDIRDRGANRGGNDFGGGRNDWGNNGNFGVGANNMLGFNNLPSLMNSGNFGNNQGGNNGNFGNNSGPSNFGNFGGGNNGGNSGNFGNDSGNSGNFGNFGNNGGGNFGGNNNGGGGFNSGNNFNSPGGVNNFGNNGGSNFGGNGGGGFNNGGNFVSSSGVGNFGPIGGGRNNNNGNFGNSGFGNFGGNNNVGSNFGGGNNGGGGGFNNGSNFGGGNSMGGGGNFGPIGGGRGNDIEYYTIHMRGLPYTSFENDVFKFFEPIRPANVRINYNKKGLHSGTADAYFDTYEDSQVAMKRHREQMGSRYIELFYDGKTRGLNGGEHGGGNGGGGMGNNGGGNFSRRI

[2] = molecular target: T2, GFP-GloΔCTX2 (Drosophila) (UniProt Q9VGH5)
T2 sequence: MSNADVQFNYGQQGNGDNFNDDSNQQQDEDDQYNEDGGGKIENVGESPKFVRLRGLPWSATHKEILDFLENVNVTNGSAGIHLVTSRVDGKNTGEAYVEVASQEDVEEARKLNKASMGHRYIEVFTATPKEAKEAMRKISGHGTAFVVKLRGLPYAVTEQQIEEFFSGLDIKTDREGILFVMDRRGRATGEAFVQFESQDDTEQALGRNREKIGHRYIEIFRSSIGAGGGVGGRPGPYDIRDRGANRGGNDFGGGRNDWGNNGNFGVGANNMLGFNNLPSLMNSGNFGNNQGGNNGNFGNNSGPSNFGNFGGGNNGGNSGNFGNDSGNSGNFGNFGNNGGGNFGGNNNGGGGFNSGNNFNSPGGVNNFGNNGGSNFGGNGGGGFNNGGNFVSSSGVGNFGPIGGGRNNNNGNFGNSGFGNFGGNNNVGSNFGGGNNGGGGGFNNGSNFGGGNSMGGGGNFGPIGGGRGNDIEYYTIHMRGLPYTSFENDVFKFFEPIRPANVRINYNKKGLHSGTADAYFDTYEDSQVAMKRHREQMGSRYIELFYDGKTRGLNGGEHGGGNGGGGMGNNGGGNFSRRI

[3] = molecular target: T3, GFP-GloΔCTX1 (Drosophila) (UniProt Q9VGH5)
T3 sequence: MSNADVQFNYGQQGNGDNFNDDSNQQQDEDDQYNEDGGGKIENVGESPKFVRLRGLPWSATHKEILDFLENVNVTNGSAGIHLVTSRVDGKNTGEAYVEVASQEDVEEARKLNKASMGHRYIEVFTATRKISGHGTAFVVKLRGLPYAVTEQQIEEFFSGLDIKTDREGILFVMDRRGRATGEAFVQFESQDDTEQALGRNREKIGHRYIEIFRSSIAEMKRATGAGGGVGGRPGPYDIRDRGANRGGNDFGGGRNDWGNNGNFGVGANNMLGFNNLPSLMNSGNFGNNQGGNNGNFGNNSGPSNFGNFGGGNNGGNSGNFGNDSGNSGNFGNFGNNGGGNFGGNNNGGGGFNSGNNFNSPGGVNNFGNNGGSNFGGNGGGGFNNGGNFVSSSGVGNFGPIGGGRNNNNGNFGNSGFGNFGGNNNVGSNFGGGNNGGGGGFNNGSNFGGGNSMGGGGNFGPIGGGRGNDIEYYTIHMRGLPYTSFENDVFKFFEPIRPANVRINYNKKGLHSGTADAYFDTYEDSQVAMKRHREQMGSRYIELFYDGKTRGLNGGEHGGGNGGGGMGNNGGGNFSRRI

binding [1]: binds
binding [2]: binds
binding [3]: binds
Substance: Drosophila fragile X mental retardation protein (dFMRP), endogenous (from UniProt Q9NFU0 1-684)
